The values below come from patent US20260137795A1, “EXATECAN IMMUNOCONJUGATES” (Immunome, Inc., priority 2023, published 2026).

Test [1] concerns the target T1, ROR-1 positive cell line JeKo-1 (Homo sapiens, UniProt Q01973).
T1 construct: endogenous in cells; host or cells: JeKo-1
As to the kind of experiment: Cell binding saturation assay (flow cytometry, MFI). As to conditions: FIG. 16. An excerpt:
FIG. 16 illustrates a measurement of cell binding saturation data for the anti-ROR-1 antibodies generated by the methods described herein. […] Cells were washed, stained with secondary antibody and cell binding saturation was detected by flow cytometry and reported as mean fluorescent intensity (MFI).
A cell binding saturation assay was developed to evaluate how well the anti-ROR-1 antibodies developed in Example 16 bound to endogenously expressed extracellular ROR-1 protein on cell lines. […] Briefly, two ROR-1 positive cell lines. JeKo-1 and MDA-MB-468, were incubated in a titration series concentration of each antibody construct. Cells were then washed and subjected to secondary antibody staining and detection by flow cytometry. Mean fluorescence (MFI) was determined by analysis on cytometer software. […] (See FIG. 16).
In general terms: In flow cytometry, cells or beads pass a laser one at a time.

The next test concerns the target T2, Hu/Cy/Rh ROR1 - His (Homo sapiens, UniProt Q01973).
T2 construct: His
As to the kind of experiment: Biochemical binding to purified protein measured by SPR. Also noted: species or system human/cyno/rhesus. On the procedure: (§1) An initial assessment of antibody developability was performed by AC-SINS to evaluate the potential for self-interaction (FIG. 19). […] TABLES 1-4 provide this antibody characterization data in comparison to the known ROR-1 binding antibody UC961 including tabled results for biochemical binding to purified proteins and measured by SPR (TABLES 1-4), cellular binding to ROR-1 positive cell lines JeKo-1 and MDA-MB-468 (EC50) (TABLE 5), and cellular internalization (% internalized) (TABLE 6).

The target of another test is T3, Mouse ROR1 - His (Mus musculus, UniProt Q9Z139).
T3 construct: His
The test is described as above. On the procedure:
as §1

T3 sequence (Q9Z139 30-937): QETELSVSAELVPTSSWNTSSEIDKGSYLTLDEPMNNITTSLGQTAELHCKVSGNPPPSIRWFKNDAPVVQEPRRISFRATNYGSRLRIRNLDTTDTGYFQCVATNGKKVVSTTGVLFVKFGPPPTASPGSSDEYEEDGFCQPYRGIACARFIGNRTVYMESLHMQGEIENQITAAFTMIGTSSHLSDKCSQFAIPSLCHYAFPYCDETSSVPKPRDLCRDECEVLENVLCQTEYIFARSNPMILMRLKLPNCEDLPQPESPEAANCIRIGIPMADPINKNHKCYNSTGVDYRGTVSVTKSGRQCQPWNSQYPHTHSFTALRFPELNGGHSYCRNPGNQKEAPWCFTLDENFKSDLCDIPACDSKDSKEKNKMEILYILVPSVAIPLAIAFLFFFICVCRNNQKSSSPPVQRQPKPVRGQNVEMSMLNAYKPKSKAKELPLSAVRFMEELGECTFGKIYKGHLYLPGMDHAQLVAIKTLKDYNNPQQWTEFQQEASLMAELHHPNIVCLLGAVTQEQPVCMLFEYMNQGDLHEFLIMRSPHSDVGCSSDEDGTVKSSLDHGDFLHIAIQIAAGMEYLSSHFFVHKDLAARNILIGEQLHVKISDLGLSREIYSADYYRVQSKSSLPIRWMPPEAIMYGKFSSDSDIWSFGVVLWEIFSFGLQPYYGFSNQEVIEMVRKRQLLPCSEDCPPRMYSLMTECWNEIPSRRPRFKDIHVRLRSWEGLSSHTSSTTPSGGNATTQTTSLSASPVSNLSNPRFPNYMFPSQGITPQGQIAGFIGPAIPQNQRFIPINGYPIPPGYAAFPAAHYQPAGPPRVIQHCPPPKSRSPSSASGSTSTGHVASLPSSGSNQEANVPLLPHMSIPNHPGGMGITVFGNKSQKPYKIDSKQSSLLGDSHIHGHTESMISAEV

B1: ATX-P-885: anti-ROR-1 monoclonal antibody, IgG1; heavy chain SEQ ID NO: 21, kappa light chain SEQ ID NO: 28 (antibody)
heavy: QVQLQQWGAGLLKPSETLSLTCAVYGGSFSGYYWSWIRQPPGKGLEWIGEINHSGSTNYNPSLKSRVTISVDTSKNQFSLKLSSVTAADTAVYYCAREGVYEDYWGQGTLVTVSSASTKGPSVFPLAPSSKSTSGGTAALGCLVKDYFPEPVTVSWNSGALTSGVHTFPAVLQSSGLYSLSSVVTVPSSSLGTQTYICNVNHKPSNTKVDKRV[gap - human IgG1 Fc]
light: EIVLTQSPATLSLSPGERATLSCRASQSVSNYLAWYQQKPGQAPRLLIYDAYNRATGIPARFSGSGSGTDFTLTISSLEPEDFAVYYCQQRSNWPLTFGQGTRLEIKRTVAAPSVFIFPPSDEQLKSGTASVVCLLNNFYPREAKVQWKVDNALQSGNSQESVTEQDSKDSTYSLSSTLTLSKADYEKHKVYACEVTHQGLSSPVTKSFNRGEC
Consider B1, for which, in test [1], the “cell binding saturation compared to UC961” value is “comparable” and the “concentration needed to achieve binding saturation compared to UC961” value was “improved”. In the test with Hu/Cy/Rh ROR1 - His, this molecule gave an Rmax of 341.6 RU, a ka of 270000 M⁻¹ s⁻¹ and a kd of 0.00295 s⁻¹. Besides, in the test with Mouse ROR1 - His, the Rmax is recorded as 73.5 RU, the ka is 29200 M⁻¹ s⁻¹ and the kd was found to be 0.00132 s⁻¹.
